{
  "source": "PubChem BioAssay (NCI)",
  "note": "“And” between values parts separate entries of the source, which are not always exact repeats. Equal values may be shown once.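 Growth conditions: 96-well plates. Treatment: test compound, 48 hours, 5 concentrations. Analysis: linear interpolation between bracketing concentrations; unreached endpoints set to highest concentration. The concentration for 50% growth inhibition is given as GI50. TGI is the concentration that stops growth completely.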",
  "data": [
    {"tested_on": "NCI-H322M lung", "assay": "growth of human tumour cells (NCI), 48 h", "values": [
      {"smiles": "CC(C)=CCC[C@@H](C)[C@H]1CC[C@@]2(C)[C@@H]3CC[C@H]4C(C)(C)[C@@H](O)CC[C@@]45C[C@@]35CC[C@]12C", "TGI": "> 100 µM"},
      {"smiles": "Cc1ccc(NC(=O)c2ccc(CN3CCN(C)CC3)cc2)cc1Nc1nc(-c2cccnc2)cs1", "GI50": "14.6 µM and > 10 µM", "TGI": "29.3 µM and > 10 µM"},
      {"smiles": "C=C=C[P+](c1ccccc1)(c1ccccc1)c1ccccc1", "TGI": "> 100 µM"},
      {"smiles": "C[C@@H]1C(=O)CC2C(C)(C)CCC[C@]2(C)[C@@]12CC[C@]1(C=COC1)O2", "note": "(stereo not given in full)", "TGI": "> 100 µM"},
      {"smiles": "COc1ccc2c(c1)/C(=C/c1c(O)[nH]c(=S)[nH]c1=O)C=N2", "TGI": "> 100 µM"},
      {"smiles": "COc1ccc2c(O)c(Oc3ccc(Cl)cc3)c(=O)oc2c1", "TGI": "> 100 µM"},
      {"smiles": "Cn1cc(-c2ccc3nc(-c4ccc(CC(=O)Nc5cc(C(C)(C)C)no5)cc4)cnc3c2)cn1", "GI50": "0.0164 µM", "TGI": "> 3 µM"},
      {"smiles": "C=C1CC[C@](C)(O)[C@@]2(C)CC[C@H]3C(=C(C)C)C(=O)C[C@]3(C)C[C@H]12", "TGI": "> 50 µM"},
      {"smiles": "COc1ccc(-c2csc3c2-n2cccc2C3=O)cc1", "GI50": "0.233 µM"},
      {"smiles": "CSC(=S)CC(O)[C@@H]1CC2c3ccccc3C1c1ccccc12", "note": "(stereo not given in full)", "TGI": "30.7 µM"},
      {"smiles": "N/N=c1/nc2n(c3ncccc13)C=CNN2", "TGI": "> 100 µM"},
      {"smiles": "CC(NCc1c(O)ccc2c(-c3ccccc3)cc(=O)oc12)C(=O)O", "note": "(stereo not given)", "TGI": "> 100 µM"},
      {"smiles": "CN(C)CCNC(=O)c1cc2c3cc(Cl)ccc3[nH]c2c2ncccc12", "GI50": "4.74 µM", "TGI": "20.6 µM"},
      {"smiles": "CCNC1=C(NC(=O)c2ccc(F)cc2)C(=O)c2ccccc2C1=O", "TGI": "> 100 µM"},
      {"smiles": "CC(=O)C1(O)CC2(c3ccccc3)C(=O)C1(c1ccccc1)C(c1ccccc1)=C2c1ccccc1", "note": "(stereo not given)", "TGI": "> 100 µM"},
      {"smiles": "C/C=C1/CC(C(=O)OC)N(C(=O)OCc2ccccc2)C1=S", "note": "(stereo not given)", "TGI": "> 100 µM"},
      {"smiles": "COc1cc(/C=C/C(=O)c2cccc(-n3cc(-c4ccccc4)[nH]c3=O)c2)cc(OC)c1OC", "GI50": "2.02 µM", "TGI": "7.73 µM"},
      {"smiles": "NC(Cc1ccc(CP(=O)(O)O)cc1)C(=O)O", "note": "(stereo not given)", "TGI": "> 100 µM"},
      {"smiles": "CN(C)CC1CC/C(=C\\c2ccc(Cl)c(Cl)c2)C1=O", "note": "(stereo not given)", "TGI": "> 100 µM"},
      {"smiles": "COC(=O)c1c(O)c(C#N)c2[nH]c3ccccc3n2c1=O", "TGI": "> 100 µM"},
      {"smiles": "COCN1C(=O)[C@@H]2CCCN2C(=O)c2cc(OC)c(Cc3ccccc3)cc21", "TGI": "> 100 µM"},
      {"smiles": "ClC1=C(Cl)C(Cl)(C2(Cl)C(Cl)=C(Cl)C(Cl)=C2Cl)C(Cl)=C1Cl", "GI50": "2.85 µM", "TGI": "10.3 µM"},
      {"smiles": "Nc1c(C(=O)Nc2cccc(Cl)c2)sc2nc3c(cc12)C(=O)CCC3", "TGI": "> 100 µM"},
      {"smiles": "Fc1ccc(Nc2nc(Cl)c3[nH]cnc3n2)cc1Cl", "TGI": "> 100 µM"},
      {"smiles": "COC(=O)C(Cc1ccccc1)NC(=O)CSc1nnc(COc2ccc(Cl)cc2)n1-c1ccccc1", "note": "(stereo not given)", "TGI": "51.7 µM"},
      {"smiles": "C=C1c2nc3ccccc3n2C=C(c2ccc(OC)cc2)N1c1ccc(OCCN2CCCCC2)cc1", "TGI": "> 100 µM"},
      {"smiles": "COC(=O)C(=O)C(C(=O)C(=O)Nc1ccc(Cl)c(Cl)c1)c1nc2ccc(C(=O)c3ccccc3)cc2[nH]c1=O", "note": "(stereo not given)", "TGI": "> 100 µM"},
      {"smiles": "O=C(/C=C/c1ccccc1)NC1C=Nc2ccc([N+](=O)[O-])cc2NC1=O", "note": "(stereo not given)", "TGI": "> 100 µM"},
      {"smiles": "O=C(CC(NC(=O)OCc1ccccc1)C(=O)NC1Cc2ccccc2C1=O)OCc1ccccc1", "note": "(stereo not given)", "TGI": "> 100 µM"},
      {"smiles": "O=C(NCc1cn(Cc2cccc(Oc3ccccc3)c2)nn1)c1cccnc1Nc1ccc(F)cc1", "GI50": "29.9 µM", "TGI": "> 100 µM"},
      {"smiles": "COc1ccc2c(c1)[C@@H](NC(C)=O)CCc1cc(OC)c(OC)c(OC)c1-2", "TGI": "20.4 µM"},
      {"smiles": "CC(=O)OCC1OC(N2C(=O)[C@@H](Oc3ccccc3)[C@H]2/C=C/c2ccccc2)C(OC(C)=O)C(OC(C)=O)C1OC(C)=O", "note": "(stereo not given in full)", "TGI": "> 100 µM"},
      {"smiles": "COC(=O)NC(=O)NC(Cc1ccccc1)NC(=O)OCc1ccccc1", "note": "(stereo not given)", "TGI": "> 100 µM"},
      {"smiles": "O=C1CSC(c2c[nH]c3ccccc23)N1c1cccc(Cl)c1", "note": "(stereo not given)", "TGI": "> 100 µM"},
      {"smiles": "O=C(CCCc1ccc(N(CCCl)CCCl)cc1)NCc1ccccc1", "GI50": "29.9 µM", "TGI": "> 100 µM"},
      {"smiles": "CC(C)=CC[C@@H]1CC2(CC=C(C)C)C(=O)C(OC3(C(=O)c4ccccc4)C(=O)C4(CC=C(C)C)C[C@@H](CC=C(C)C)C(C)(C)C(CC=C(C)C)(C4=O)C3=O)(C(=O)c3ccccc3)C(=O)C(CC=C(C)C)(C2=O)C1(C)C", "note": "(stereo not given in full)", "GI50": "1.32 µM", "TGI": "3.97 µM"},
      {"smiles": "CCCCn1c(=O)[nH]c(N)c([C@@H]2c3c([nH]c(=O)n(CCCC)c3=O)Oc3ccc4ccccc4c32)c1=O", "GI50": "10.3 µM", "TGI": "22 µM"},
      {"smiles": "COc1cccc2c1nc(C(F)F)n2-c1nc(-c2ccc(NS(=O)(=O)CCN(C)C)cc2)nc(N2CCOCC2)n1", "GI50": "0.0923 µM", "TGI": "6.25 µM"},
      {"smiles": "O=C(CCc1nnc2s/c(=C\\c3ccc([N+](=O)[O-])cc3)c(=O)n12)Nc1ccc(Cl)c(Cl)c1", "TGI": "> 100 µM"},
      {"smiles": "O=C1NC(=O)C(c2c[nH]c3ccccc23)=C1c1c[nH]c2ccccc12", "GI50": "> 20.8 µM", "TGI": "> 25 µM"},
      {"smiles": "COc1ccc(C(=O)C(C(=O)CCC(=O)Nc2ccc(Cl)c(Cl)c2)c2ccc(OC)cc2)cc1", "note": "(stereo not given)", "TGI": "> 100 µM"},
      {"smiles": "N#CC(C#N)=c1c(=O)c2c3ccccc3cc3cccc1c32", "TGI": "> 100 µM"},
      {"smiles": "CC(=O)/C(=C\\c1ccc(Cl)cc1)c1ccccc1", "GI50": "0.409 µM", "TGI": "> 100 µM"},
      {"smiles": "O=C([CH-]C(=O)c1ccccc1)c1ccccc1.O=C([CH-]C(=O)c1ccccc1)c1ccccc1.O=C([CH-]C(=O)c1ccccc1)c1ccccc1.[Ga+3]", "GI50": "> 100 µM", "TGI": "> 100 µM"},
      {"smiles": "CCOC(=O)c1nc2ccccc2nc1Oc1cc(OC)cc(OC)c1", "TGI": "> 100 µM"},
      {"smiles": "NC(N)=N/N=C\\c1c(-c2cccc([N+](=O)[O-])c2)nc2sccn12", "TGI": "17.8 µM"},
      {"smiles": "O=C(CCC(=O)c1ccsc1)c1ccsc1", "TGI": "> 100 µM"}
    ]}
  ]
}
